Tests used:
[1] = system: human lung adenocarcinoma cells (Calu-3); assay: Subcutaneous xenograft tumor model, Calu-3 (in vivo evaluation 2); set-up: species or system Balb/c nude mice; conditions: Calu-3 xenograft; one dose via tail vein injection; ADC01 and ADC03 2 and 8 mg/kg, ADC02, ADC04 and ADC07 8 mg/kg; compared to the control group; FIG. 3
Procedure: Female Balb/c nude mice, 6-8 weeks old, were subcutaneously injected in the dorsal neck region with 5 × 10^6 human lung adenocarcinoma cells (Calu-3) suspended in 100 µL of PBS. Once the mean tumor volume reached approximately 100 mm^3 (on day 4 post-inoculation), 48 nude mice were randomly divided into 8 groups of 6 according to tumor size, and each mouse was given one dose via tail vein injection: • group 1 was a blank control group; • group 2 was ADC07 (8 mg/kg); • group 3 was ADC01 (2 mg/kg); • group 4 was ADC01 (8 mg/kg); • group 5 was ADC02 (8 mg/kg); • group 6 was ADC03 (2 mg/kg); • group 7 was ADC03 (8 mg/kg); • group 8 was ADC04 (8 mg/kg).
(§1) The body weight and tumor volume of the experimental animals were measured twice weekly, and the survival status of the animals was monitored during the experiment.

[2] = system: human squamous lung carcinoma cells (EBC-1); assay: Subcutaneous xenograft tumor model, EBC-1 (in vivo evaluation 1); set-up: species or system Balb/c nude mice; conditions: EBC-1 xenograft; one dose via tail vein injection; ADC01 and ADC03 2 and 10 mg/kg, ADC02 and ADC04 10 mg/kg; compared to the control group; FIG. 1
Procedure: Female Balb/c nude mice, 6-8 weeks old, were subcutaneously injected in the dorsal neck region with 5 × 10^6 human squamous lung carcinoma cells (EBC-1) suspended in 100 µL of PBS. Once the mean tumor volume reached approximately 100 mm^3 (on day 11 post-inoculation), 48 nude mice were randomly divided into 8 groups of 6 according to tumor size, and each mouse was given one dose via tail vein injection: • group 1 was a blank control group; • group 2 was ADC07 (10 mg/kg); • group 3 was ADC01 (2 mg/kg); • group 4 was ADC01 (10 mg/kg); • group 5 was ADC02 (10 mg/kg); • group 6 was ADC03 (2 mg/kg); • group 7 was ADC03 (10 mg/kg); • group 8 was ADC04 (10 mg/kg).
as §1

[3] = system: MM.1S cells, which express BCMA; assay: In vitro killing experiment (proliferation inhibition), MM.1S; assay type: cell-based; conditions: result in words; FIGs. 8 and 9
From the text: After MM.1S cells, which express BCMA, were co-cultured for 4 days with serially diluted vcMMAE (MCE)-conjugated anti-BCMA mAb (anti-BCMA-vcMMAE for short); vcMMAF-conjugated anti-BCMA mAb (anti-BCMA-vcMMAF for short); Linker-MMAE derivative 1, Linker-MMAE derivative 2, or CPD-conjugated anti-BCMA (referred to as anti-BCMA-Linker-MMAE derivative 1, anti-BCMA-Linker-MMAE derivative 2, anti-BCMA-CPD-D4, or anti-BCMA-CPD-D8, respectively, for short); CPD-conjugated control IgG1 protein (anti-KLH-CPD-D4 for short); and MMAF or MMAE-conjugated control IgG1 protein (referred to as anti-KLH-MMAF-D4 or anti-KLH-MMAE-D4, respectively, for short), the number of viable cells was determined using cell counting lite (Vazyme #DD1102-01), and proliferation inhibition rates (proliferation inhibition rate %, proliferation inhibition rate = 100 × (number of viable cells in untreated group - number of viable cells in treated group) / (number of viable cells in untreated group - number of viable cells in solution control group)%) were calculated to determine the in vitro killing activity of the candidate molecules.

Row | Molecule | anti-tumor activity [1] | anti-tumor activity [2] | proliferation-inhibiting effect on MM.1S cells [3]
1 | ADC01 (conjugate) heavy: QVQLVQSGAEVKKPGASVKVSCKASGYTFTTAGMQWVRQAPGQGLEWMGWINTHSGVPKYAEDFKGRVTISADTSTSTAYLQLSSLKSEDTAVYYCARSGFGSSYWYFDVWGQGTLVTVSSASTKGPSVFPLAPSSKSTSGGTAALGCLVKDYFPEPVTVSWNSGALTSGVHTFPAVLQSSGLYSLSSVVTVPSSSLGTQTYICNVNHKPSNTKVDKRV[skipping human IgG1 Fc] light: DIQMTQSPSSLSASVGDRVTITCKASQDVSTAVAWYQQKPGKAPKLLIYSASYRYTGVPSRFSGSGSGTDFTLTISSLQPEDFAVYYCQQHYITPLTFGQGTKLEIKRTVAAPSVFIFPPSDEQLKSGTASVVCLLNNFYPREAKVQWKVDNALQSGNSQESVTEQDSKDSTYSLSSTLTLSKADYEKHKVYACEVTHQGLSSPVTKSFNRGEC | exhibited anti-tumor activity | exhibited anti-tumor activity | –
2 | anti-BCMA-005-Hu178-vcMMAE-D4: vcMMAE (MCE)-conjugated anti-BCMA mAb (conjugate) heavy: EVQLVESGGGLVKPGGSLRLSCAASGFTFSNFDMAWVRQAPGKGLEWVASIVTRGDDTYYRDSVRGRFTISRDNAKNTQYLQMNSLRAEDTAVYYCARHDYGGPSGWFGYWGQGTLVTVSS[skipping human IgG1 constant region] light: DIQMTQSPSSLSASVGDRVTITCRASQGFSNNLNWYQQKPGKTPKPLIYYTSNLHSGVPSRFSGSGSGTDYSLTISSLQPEDFATYYCQQDASFPPTFGQGTKLEIKRTVAAPSVFIFPPSDEQLKSGTASVVCLLNNFYPREAKVQWKVDNALQSGNSQESVTEQDSKDSTYSLSSTLTLSKADYEKHKVYACEVTHQGLSSPVTKSFNRGEC | – | – | significant proliferation-inhibiting effects
3 | anti-BCMA-005-Hu178-CPD-D4 (conjugate) heavy: EVQLVESGGGLVKPGGSLRLSCAASGFTFSNFDMAWVRQAPGKGLEWVASIVTRGDDTYYRDSVRGRFTISRDNAKNTQYLQMNSLRAEDTAVYYCARHDYGGPSGWFGYWGQGTLVTVSS[skipping human IgG1 constant region] light: DIQMTQSPSSLSASVGDRVTITCRASQGFSNNLNWYQQKPGKTPKPLIYYTSNLHSGVPSRFSGSGSGTDYSLTISSLQPEDFATYYCQQDASFPPTFGQGTKLEIKRTVAAPSVFIFPPSDEQLKSGTASVVCLLNNFYPREAKVQWKVDNALQSGNSQESVTEQDSKDSTYSLSSTLTLSKADYEKHKVYACEVTHQGLSSPVTKSFNRGEC | – | – | significant proliferation-inhibiting effects
4 | anti-BCMA-005-Hu178-OMeMMAE-D4: Linker-MMAE derivative 2-conjugated anti-BCMA antibody (conjugate) heavy: EVQLVESGGGLVKPGGSLRLSCAASGFTFSNFDMAWVRQAPGKGLEWVASIVTRGDDTYYRDSVRGRFTISRDNAKNTQYLQMNSLRAEDTAVYYCARHDYGGPSGWFGYWGQGTLVTVSS[skipping human IgG1 constant region] light: DIQMTQSPSSLSASVGDRVTITCRASQGFSNNLNWYQQKPGKTPKPLIYYTSNLHSGVPSRFSGSGSGTDYSLTISSLQPEDFATYYCQQDASFPPTFGQGTKLEIKRTVAAPSVFIFPPSDEQLKSGTASVVCLLNNFYPREAKVQWKVDNALQSGNSQESVTEQDSKDSTYSLSSTLTLSKADYEKHKVYACEVTHQGLSSPVTKSFNRGEC | – | – | significant proliferation-inhibiting effects
5 | anti-BCMA-005-Hu178-vcMMAF-D4: vcMMAF-conjugated anti-BCMA mAb (conjugate) heavy: EVQLVESGGGLVKPGGSLRLSCAASGFTFSNFDMAWVRQAPGKGLEWVASIVTRGDDTYYRDSVRGRFTISRDNAKNTQYLQMNSLRAEDTAVYYCARHDYGGPSGWFGYWGQGTLVTVSS[skipping human IgG1 constant region] light: DIQMTQSPSSLSASVGDRVTITCRASQGFSNNLNWYQQKPGKTPKPLIYYTSNLHSGVPSRFSGSGSGTDYSLTISSLQPEDFATYYCQQDASFPPTFGQGTKLEIKRTVAAPSVFIFPPSDEQLKSGTASVVCLLNNFYPREAKVQWKVDNALQSGNSQESVTEQDSKDSTYSLSSTLTLSKADYEKHKVYACEVTHQGLSSPVTKSFNRGEC | – | – | significant proliferation-inhibiting effects
6 | anri-BCMA-005-Hu178-CPD-D8 (conjugate) heavy: EVQLVESGGGLVKPGGSLRLSCAASGFTFSNFDMAWVRQAPGKGLEWVASIVTRGDDTYYRDSVRGRFTISRDNAKNTQYLQMNSLRAEDTAVYYCARHDYGGPSGWFGYWGQGTLVTVSS[skipping human IgG1 constant region] light: DIQMTQSPSSLSASVGDRVTITCRASQGFSNNLNWYQQKPGKTPKPLIYYTSNLHSGVPSRFSGSGSGTDYSLTISSLQPEDFATYYCQQDASFPPTFGQGTKLEIKRTVAAPSVFIFPPSDEQLKSGTASVVCLLNNFYPREAKVQWKVDNALQSGNSQESVTEQDSKDSTYSLSSTLTLSKADYEKHKVYACEVTHQGLSSPVTKSFNRGEC | – | – | significant proliferation-inhibiting effects
7 | anti-BCMA-005-Hu178-glucoseMMAE-NC-D4: Linker-MMAE derivative 1-conjugated anti-BCMA antibody (conjugate) heavy: EVQLVESGGGLVKPGGSLRLSCAASGFTFSNFDMAWVRQAPGKGLEWVASIVTRGDDTYYRDSVRGRFTISRDNAKNTQYLQMNSLRAEDTAVYYCARHDYGGPSGWFGYWGQGTLVTVSS[skipping human IgG1 constant region] light: DIQMTQSPSSLSASVGDRVTITCRASQGFSNNLNWYQQKPGKTPKPLIYYTSNLHSGVPSRFSGSGSGTDYSLTISSLQPEDFATYYCQQDASFPPTFGQGTKLEIKRTVAAPSVFIFPPSDEQLKSGTASVVCLLNNFYPREAKVQWKVDNALQSGNSQESVTEQDSKDSTYSLSSTLTLSKADYEKHKVYACEVTHQGLSSPVTKSFNRGEC | – | – | significant proliferation-inhibiting effects
